The other results are listed elsewhere or left out.
B1: PhoQ; a variant is named by its letters at X, in order, P23837 (parent)
chain: MKKLLRLFFPLSLRVRFLLATAAVVLVLSLAYGMVALIGYSVSFDKTTFRLLRGESNLFYTLAKWENNKLHVELPENIDKQSPTMTLIYDENGQLLWAQRDVPWLMKMIQPDWLKSNGFHEIEADVNDTSLLLSGDHSIQQQLQEVREDDDDAEMTHSVAVNVYPATSRMPKLTIVVVDTIPVELKSSYMVWSWFIYVLSANLLLVIPLLWVAAWWSLRPIEALAKEVRELEEHNRELLNPATTRELTSLVRNLNRLLKSERERYDKYRTTLTDLTHSLKTPLXXLQXXLRSLRSEKMSVSDAEPVMLEQISRISQQIGYYLHRASMRGGTLLSRELHPVAPLLDNLTSALNKVYQRKGVNISLDISPEISFVGEQNDFVEVMGNVLDNACKYCLEFVEISARQTDEHLYIVVEDDGPGIPLSKREVIFDRGQRVDTLRPGQGVGLAVAREITEQYEGKIVAGESMLGGARMEVIFGRQHSAPKDE

Variants of: B1
Experiment: enrichment ratio after two sorts for PhoP signalling (ratio (wild type AVST 3.29)); higher = more functional
Conditions: with PhoP (E. coli)

| Variant | enrichment ratio |
| --- | --- |
| DEGW | ≤ 0.25 |
| HKKD | ≤ 0.25 |
| GGWH | ≤ 0.25 |
| YQQC | ≤ 0.25 |
| KHRF | ≤ 0.25 |
| TTHR | ≤ 0.25 |
| GIDS | ≤ 0.25 |
| NLDD | ≤ 0.25 |
| RNIH | ≤ 0.25 |
| ENDD | ≤ 0.25 |
| HGLF | 9.46 |
| DRMN | ≤ 0.25 |
| CVHP | ≤ 0.25 |
| LHTQ | ≤ 0.25 |
| FFSP | ≤ 0.25 |
| YRKN | ≤ 0.25 |
| SDKQ | ≤ 0.25 |
| SSSM | 14.8 |
| ECRC | ≤ 0.25 |
| GIPQ | ≤ 0.25 |
| VCDF | ≤ 0.25 |
| NFLN | 0.688 |
| CFFM | ≤ 0.25 |
| VAFG | ≤ 0.25 |
| GLIR | ≤ 0.25 |
| WHTY | ≤ 0.25 |

| Variant | enrichment ratio |
| --- | --- |
| KAYQ | ≤ 0.25 |
| SSMM | 19.1 |
| HPYT | ≤ 0.25 |
| LHPQ | ≤ 0.25 |
| HFGF | ≤ 0.25 |
| DILE | ≤ 0.25 |
| FRRV | ≤ 0.25 |
| SNWV | ≤ 0.25 |
| NSDS | ≤ 0.25 |
| AKSN | ≤ 0.25 |
| RHKC | ≤ 0.25 |
| QIYA | ≤ 0.25 |
| RTCP | ≤ 0.25 |
| LFWN | ≤ 0.25 |
| RCHM | ≤ 0.25 |
| YDRL | ≤ 0.25 |
| DSQY | ≤ 0.25 |
| KIKA | ≤ 0.25 |
| GSAQ | ≤ 0.25 |
| LFEL | ≤ 0.25 |
| VQIL | ≤ 0.25 |
| DKRN | ≤ 0.25 |
| TIAW | ≤ 0.25 |
| DWRI | ≤ 0.25 |
| DGIQ | ≤ 0.25 |
| KCQR | ≤ 0.25 |

| Variant | enrichment ratio |
| --- | --- |
| KKTL | ≤ 0.25 |
| LRYW | ≤ 0.25 |
| QVHP | ≤ 0.25 |
| DMSP | ≤ 0.25 |
| GTWK | ≤ 0.25 |
| RDTR | ≤ 0.25 |
| EPPK | ≤ 0.25 |
| RIQC | ≤ 0.25 |
| YQIM | ≤ 0.25 |
| RWNK | ≤ 0.25 |
| AINP | ≤ 0.25 |
| FKAC | ≤ 0.25 |
| HQDT | ≤ 0.25 |
| DWMS | ≤ 0.25 |
| VLVE | ≤ 0.25 |
| DKHR | ≤ 0.25 |
| NERH | ≤ 0.25 |
| FSPS | ≤ 0.25 |
| EAMH | ≤ 0.25 |
| PTKC | ≤ 0.25 |
| SDHT | ≤ 0.25 |
| PDYV | ≤ 0.25 |
| HNGV | ≤ 0.25 |
| VASW | ≤ 0.25 |
| TTVW | ≤ 0.25 |
| LGAF | ≤ 0.25 |

| Variant | enrichment ratio |
| --- | --- |
| YMYF | ≤ 0.25 |
| HWPW | ≤ 0.25 |
| SLLE | 2.52 |
| DPDC | ≤ 0.25 |
| DKVD | ≤ 0.25 |
| PKDV | ≤ 0.25 |
| YQWV | ≤ 0.25 |
| KFYS | ≤ 0.25 |
| ASEQ | ≤ 0.25 |
| SCFF | ≤ 0.25 |
| RTRP | ≤ 0.25 |
| VKVL | ≤ 0.25 |
| IMCS | ≤ 0.25 |
| IQAV | ≤ 0.25 |
| VFAS | ≤ 0.25 |
| EVVP | ≤ 0.25 |
| IYEI | ≤ 0.25 |
| FIHL | ≤ 0.25 |
| NQDH | ≤ 0.25 |
| EFHH | ≤ 0.25 |
| TSME | 7.32 |
| HAMY | ≤ 0.25 |
| DMAA | ≤ 0.25 |
| IRYM | ≤ 0.25 |
| SCKK | ≤ 0.25 |
| TNRK | ≤ 0.25 |

| Variant | enrichment ratio |
| --- | --- |
| QMSK | ≤ 0.25 |
| MDDT | ≤ 0.25 |
| TWIL | ≤ 0.25 |
| RAEG | ≤ 0.25 |
| TLIE | ≤ 0.25 |
| DHDF | ≤ 0.25 |
| VDQN | ≤ 0.25 |
| WKGL | ≤ 0.25 |
| QSVR | ≤ 0.25 |
| FDPR | ≤ 0.25 |
| QDAP | ≤ 0.25 |
| WYPW | ≤ 0.25 |
| HNWG | ≤ 0.25 |
| DETY | ≤ 0.25 |
| GNPN | ≤ 0.25 |
| PLYH | ≤ 0.25 |
| IHYF | ≤ 0.25 |
| HMNK | ≤ 0.25 |
| MSRF | ≤ 0.25 |
| NNWF | ≤ 0.25 |
| ADYH | ≤ 0.25 |
| TKHC | ≤ 0.25 |
| MRKY | ≤ 0.25 |
| EMTW | ≤ 0.25 |
| VYGH | ≤ 0.25 |
| DGAG | ≤ 0.25 |

| Variant | enrichment ratio |
| --- | --- |
| MGNV | ≤ 0.25 |
| THNV | ≤ 0.25 |
| YGIM | 0.277 |
| FYPR | ≤ 0.25 |
| RRAT | ≤ 0.25 |
| VYMF | ≤ 0.25 |
| RTTA | ≤ 0.25 |
| FRKN | ≤ 0.25 |
| AWDG | ≤ 0.25 |
| RSIC | ≤ 0.25 |
| RRQH | ≤ 0.25 |
| GNIH | ≤ 0.25 |
| ILFS | ≤ 0.25 |
| VLGL | ≤ 0.25 |
| PHID | ≤ 0.25 |
| LPML | ≤ 0.25 |
| DHIP | ≤ 0.25 |
| PEAG | ≤ 0.25 |
| WMRH | ≤ 0.25 |
| TKVL | 8.9 |
| FYSY | ≤ 0.25 |
| KLCN | ≤ 0.25 |
| ANPD | ≤ 0.25 |

Reference: a collection of fitness landscapes (doi:10.1126/science.1257360)
